Out of some 39,000 compounds screened, about 220 (0.56%) showed activity. Some of the results follow.
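Also: static incubation at 37 °C against the wild-type strain, values averaged over two biological replicates.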

This assay relates to Escherichia coli K-12 BW25113. Briefly: relative growth (OD600 normalised to plate interquartile mean) (fraction); higher = less growth inhibition, active = 0.2 or less. The note with it: 50 µM; LB; incubation time: overnight (16-24 h).
`Cc1nn(C)cc1NC(=O)C[C@H]1CC[C@@H]2[C@H](COc3ccc(NC(=O)C4CCOCC4)cc3C(=O)N2C)O1`: the relative growth is inactive: 1.02.

Regarding `C[C@H](CO)N1C[C@H](C)[C@@H](CN(C)Cc2ccc(C(F)(F)F)cc2)OCCCC[C@H](C)Oc2ccc(NC(=O)Nc3cccc4ccccc34)cc2C1=O`, the relative growth is inactive: 1.01.

Turning to `O=C(C[C@H]1C[C@H]2c3cc(NC(=O)Cc4ccncc4)ccc3O[C@H]2[C@@H](CO)O1)NCc1cc(F)ccc1F`, the relative growth was inactive: 0.974.

Take `CCCCN(CCCC)CCCOC(=O)c1ccc(N)cc1.O=S(=O)(O)O`: the relative growth is inactive: 0.986.

`COc1ccc(NC(=O)Nc2ccc3c(c2)C(=O)N([C@@H](C)CO)C[C@H](C)[C@@H](CN(C)Cc2ccc(Cl)c(Cl)c2)O3)cc1`: the relative growth is inactive: 1.01.

`CCOC(=O)c1cc(=O)c2cc([C@@H]3CC(=O)N(C(=O)OCc4ccccc4)[C@@H]3C(=O)Nc3cccc4cccnc34)ccc2o1`: the relative growth was inactive: 1.01.

As for `CC(C)=CCCC(C)=CCOc1ccc2ccc(=O)oc2c1`, the relative growth is inactive: 0.886.

Consider `C[C@H](CO)N1C[C@H](C)[C@H](CN(C)C(=O)Cc2ccccc2)OCCCC[C@H](C)Oc2ccc(NC(=O)CCC(F)(F)F)cc2C1=O`, for which the relative growth was inactive: 0.959.

Take `CN(CC=CC#CC(C)(C)C)Cc1cccc2ccccc12.Cl`: the relative growth was inactive: 0.985.

With `C[C@@H]1CN([C@H](C)CO)C(=O)Cc2cc(NC(=O)CCCCCC(=O)Nc3ccccc3N)ccc2O[C@H]1CN(C)CC1CCCCC1`, the relative growth was inactive: 1.

Regarding `C[C@@H]1CCCCO[C@H](CN(C)Cc2ccccc2)[C@H](C)CN([C@@H](C)CO)C(=O)c2cc(NS(=O)(=O)c3ccc(F)cc3)ccc2O1`, the relative growth is inactive: 0.995.

As for `Cc1noc(C)c1NC(=O)Nc1ccc2c(c1)CC(=O)N([C@@H](C)CO)C[C@@H](C)[C@@H](CN(C)Cc1ccc(C(=O)Nc3ccccc3N)cc1)O2`, the relative growth is inactive: 0.983.

`C=CCOC(=O)[C@@H]1[C@H]2C(=O)O[C@H](c3ccccc3)[C@H](c3ccccc3)N2[C@H](c2ccc(OCCOC(=O)[C@H]3C[C@H]4C(=O)NCC(=O)N4[C@H]3c3cccc(OCCO)c3)cc2)[C@@]12C(=O)Nc1ccccc12`: the relative growth is inactive: 1.03.

In the case of `C[C@@H]1CCCCO[C@@H](CN(C)C(=O)Nc2ccc(F)cc2)[C@@H](C)CN([C@H](C)CO)C(=O)c2cc(NS(=O)(=O)c3ccc(Cl)cc3)ccc2O1`, the relative growth was inactive: 1.02.

In the case of `CN(c1ncccc1CNc1nc(Nc2ccc3c(c2)CC(=O)N3)ncc1C(F)(F)F)S(C)(=O)=O`, the relative growth was inactive: 1.04.

Regarding `C[C@H](CO)N1C[C@H](C)[C@H](CN(C)C(=O)CN(C)C)Oc2cc(C#CC(C)(C)O)ccc2S1(=O)=O`, the relative growth is inactive: 0.969.

On to `C[C@H]1CN([C@@H](C)CO)C(=O)c2cccc(NC(=O)Nc3ccccc3)c2O[C@@H]1CN(C)Cc1ccc(C(=O)Nc2ccccc2N)cc1`, for which the relative growth was inactive: 1.01.

As for `NS(=O)(=O)c1ccc(Cl)c(S(N)(=O)=O)c1`, the relative growth was inactive: 0.944.

On to `C[C@@H]1CCCCO[C@H](CN(C)C(=O)C2CCCCC2)[C@@H](C)CN([C@@H](C)CO)C(=O)c2cc(NC(=O)C3CCCCC3)ccc2O1`, for which the relative growth is inactive: 1.

As to `Cc1nc(=O)c2cccc(O)c2[nH]1`, the relative growth is inactive: 0.983.

As for `C[C@@H]1CN([C@H](C)CO)C(=O)c2cc(NC(=O)Cn3cnnn3)ccc2O[C@@H]1CN(C)C(=O)Nc1ccc(C(F)(F)F)cc1`, the relative growth was inactive: 0.974.

As to `NCc1ccccc1Sc1ccccc1CO`, the relative growth is inactive: 0.971.

With `COc1cccc(S(=O)(=O)N2C[C@@H](O)COC[C@@H]3O[C@@H](CC(=O)N4CCN(C)CC4)CC[C@H]32)c1`, the relative growth was inactive: 0.971.

Regarding `CN(C)C(=O)N1CCOC[C@@]2(C1)CN(c1cnn(C)c1)C(=O)CO2`, the relative growth is inactive: 0.989.

With `C[C@@H]1CCCCO[C@H](CN(C)Cc2ccc3c(c2)OCO3)[C@H](C)CN([C@@H](C)CO)C(=O)c2cc(NC(=O)C3CCCCC3)ccc2O1`, the relative growth is inactive: 0.992.

Turning to `O=c1c(O)c(O)cc2cccc(O)c(O)c1-2`, the relative growth was inactive: 0.831.

Turning to `C[C@H]1CCCCO[C@H](CN(C)S(=O)(=O)c2ccc(Cl)cc2)[C@@H](C)CN([C@@H](C)CO)C(=O)c2cc(NS(=O)(=O)c3ccc(F)cc3)ccc2O1`, the relative growth was inactive: 1.03.

In the case of `CN1CCN(C(=O)C[C@H]2CC[C@H]3[C@@H](COC[C@@H](O)CN3C(=O)C3CCCC3)O2)CC1`, the relative growth was inactive: 1.03.

Consider `COc1cccc(NC(=O)N[C@@H]2C=C[C@H](CC(=O)N3CCN(C)CC3)O[C@H]2CO)c1`, for which the relative growth was inactive: 0.998.

Take `C[C@@H]1CN([C@H](C)CO)C(=O)c2cc(NC(=O)Nc3cccc4ccccc34)ccc2O[C@@H]1CN(C)C(=O)Nc1ccc2c(c1)OCO2`: the relative growth was inactive: 0.999.

As to `COc1cccc(NC(=O)N[C@@H]2C=C[C@@H](CC(=O)N3CCN(C)CC3)O[C@H]2CO)c1`, the relative growth was inactive: 1.02.

With `C[C@H](CO)N1C[C@H](C)[C@@H](CN(C)CC2CCCCC2)Oc2c(NC(=O)Nc3ccc(C(F)(F)F)cc3)cccc2C1=O`, the relative growth is inactive: 0.851.

Take `C[C@H]1CN([C@@H](C)CO)C(=O)c2cccc(NS(C)(=O)=O)c2O[C@H]1CN(C)C(=O)Nc1ccc(C(F)(F)F)cc1`: the relative growth is inactive: 0.981.

In the case of `COc1ccc(S(=O)(=O)Nc2ccc3c(c2)C(=O)N([C@H](C)CO)C[C@H](C)[C@H](CN(C)S(=O)(=O)c2cn(C)cn2)OCCCC[C@H](C)O3)cc1`, the relative growth is inactive: 0.956.

With `CC(=O)N[C@@H](CS)C(=O)O`, the relative growth was inactive: 1.

For the compound `O=C(C[C@@H]1C/C=C/CCC(=O)O[C@H](c2ccccc2)CNC1=O)NCc1ccc(Cl)c(C(F)(F)F)c1`, the relative growth is inactive: 0.984.

As to `COCC(=O)N[C@@H]1C=C[C@H](CC(=O)N2CCCCC2)O[C@@H]1CO`, the relative growth is inactive: 1.02.

On to `COc1ccc2c3c(n(c2c1)C)[C@H](CO)N(Cc1ccccc1)C[C@]13CCN(CC1)C(=O)Nc1cccc(c1)F`, for which the relative growth was inactive: 1.01.

On to `CC(=O)O[C@@]1(C)C[C@@H](O)[C@@H]2C=CO[C@@H](O[C@@H]3O[C@H](CO)[C@@H](O)[C@H](O)[C@H]3O)[C@@H]21`, for which the relative growth was inactive: 1.02.

For `Cc1noc(C)c1NC(=O)Nc1cccc2c1O[C@@H](CN(C)C(=O)Nc1ccc(C(F)(F)F)cc1)[C@H](C)CN([C@H](C)CO)C2=O`, the relative growth was inactive: 0.907.

The values are drawn from the supplement of paper PMC9446081.
